Data from the supplement of paper PMC2702839.
Structures can show the parent of a compound that is named as a salt. This is one part of the list.

Test system: Schistosoma mansoni schistosomula
Assay: phenotypic hit in primary schistosomula screen (any phenotype vs DMSO control) (binary (1 = hit, 0 = no phenotype)); higher = active (phenotype induced)
Settings: 1 µM; time (d): 7

Structure (SMILES)	phenotypic hit
CC(C)(O)[C@@H]1[C@H]2OC(=O)[C@@H]1[C@]1(O)C[C@H]3O[C@]34C(=O)O[C@H]2[C@]14C [picrotin]	inactive: 0
O=c1[nH]oc2c1CCNC2 [THIP hydrochloride]	inactive: 0
C=C(C)[C@H]1Cc2c(ccc3c(=O)c4c(oc23)COc2cc(OC)c(OC)cc2-4)O1 [dehydrorotenone]	inactive: 0
Clc1ccc(Cl)cc1 [paradichlorobenzene]	inactive: 0
COC(=O)C=C(C)OP(=O)(OC)OC [mevinphos]	inactive: 0
CCC(C)C(=O)OC1CC2(C)C(c3ccoc3)OC(=O)CC23OC2(C)OC34C(OC(=O)C(C)C)C3(O)C(OC(=O)C5(C)OC5C)C5(C)CC3(O)C(C)(C5CC(=O)OC)C14O2 (stereo unspecified) [entandrophragmin]	inactive: 0
C=CCc1cc(OC)c2c(c1OC)OCO2 [apiole]	active: 1
COc1cc2ccc(=O)oc2c2ccoc12 [sphondin]	inactive: 0
O=c1cccc2n1C[C@@H]1CNC[C@H]2C1 [cytisine]	inactive: 0
CCC(=O)Nc1ccc(Cl)c(Cl)c1 [propanil]	inactive: 0
CC[C@@H](C)C(=O)O[C@H]1[C@H](O)[C@H]2[C@@H](CN3C[C@@H](C)CC[C@H]3[C@@]2(C)O)[C@@H]2C[C@]34O[C@]5(O)[C@@H](OC(=O)[C@@](C)(O)CC)CC[C@@]3(C)[C@@H]5[C@@H](OC(C)=O)[C@@H](OC(C)=O)[C@H]4[C@@]21O [protoveratrine a]	inactive: 0
O=C(O)CF [sodium fluoroacetate]	inactive: 0
O=C(CCCN1CCC2(CC1)C(=O)NCN2c1ccccc1)c1ccc(F)cc1 [Spiperone hydrochloride]	inactive: 0
CC1(C)C(=O)[C@@H]2O[C@@H]2[C@@]2(C)C1C[C@@H](O)[C@]1(C)C2CC[C@@]2(C)[C@H](c3ccoc3)OC(=O)C3OC321 (stereo partly drawn) [1,2alpha-epoxydeacetoxydihydrogedunin]	inactive: 0
O=[N+]([O-])O[C@H]1CO[C@H]2[C@@H]1OC[C@H]2O[N+](=O)[O-] [isosorbide dinitrate]	inactive: 0
CCC1(c2ccc(N)cc2)CCC(=O)NC1=O (racemic) [(±)-p-Aminoglutethimide]	inactive: 0
ClC1=C(Cl)C2(Cl)C3C4CC(C5OC45)C3C1(Cl)C2(Cl)Cl (stereo unspecified) [endrin]	inactive: 0
ClC(Cl)=C(c1ccc(Cl)cc1)c1ccc(Cl)cc1 [dichlorodiphenyldichloroethylene]	active: 1
CCOC(=O)C1C(C=C(C)C)C1(C)C (stereo unspecified) [chrysanthemic acid, ethyl ester]	inactive: 0
CCOP(=S)(OCC)SCSCC [phorate]	inactive: 0
CCC1C2CC3C4N(C)c5ccccc5C45CC(C2C5OC(C)=O)N3C1OC(C)=O (stereo unspecified) [ajmaline diacetate]	inactive: 0
CN[C@@H](C)[C@@H](O)c1ccccc1 [(+)-Pseudoephedrine]	inactive: 0

Structure (SMILES)	phenotypic hit
C[C@@H]1O[C@@H](O[C@H]2CC[C@]3(C=O)[C@H]4CC[C@]5(C)[C@@H](C6=CC(=O)OC6)CC[C@]5(O)[C@@H]4CC[C@]3(O)C2)[C@H](O)[C@H](O)[C@H]1O [convallatoxin]	inactive: 0
CN1[C@@H]2C[C@@H](OC(=O)[C@H](CO)c3ccccc3)C[C@H]1[C@@H]1O[C@@H]12 [scopolamine hydrobromide]	inactive: 0
CC1(C)C2CC(=O)[C@]3(C)C(CC[C@@]4(C)[C@H](c5ccoc5)OC(=O)C5OC543)[C@@]2(C)[C@@H](O)C[C@H]1O (stereo partly specified) [1,3-dideacetyl-7-deacetoxy-7-oxokhivorin]	inactive: 0
N[C@@H]1C[C@H]1c1ccccc1 [Tranylcypromine hydrochloride]	inactive: 0
NCC(CC(=O)O)c1ccc(Cl)cc1 (racemic) [(±)-Baclofen]	inactive: 0
NNCc1cccc(O)c1 [3-hydroxybenzylhydrazine dihydrochloride]	inactive: 0
[O-][n+]1ccccc1[S-].[O-][n+]1ccccc1[S-].[Zn+2] [pyrithione zinc]	active: 1
CCC(C)C(=O)O[C@@H]1C[C@@]2(C)[C@H](c3ccoc3)OC(=O)CC23OC2(C)O[C@]14[C@]1(C)[C@@H](CC(=O)OC)C5(C)CC1(O)[C@](O)(C5OC(=O)C1(C)OC1C)[C@@H](OC(C)=O)[C@]34O2 (stereo partly specified) [utilin]	inactive: 0
COc1ccc2c(c1O)-c1c(OC)c(OC)cc3c1[C@H](C2)N(C)CC3 [isocorydine (+)]	inactive: 0
NC(=O)c1cc([N+](=O)[O-])cc([N+](=O)[O-])c1 [nitromide]	inactive: 0
O=C1CC[C@@]2(O)[C@H]3Cc4ccc(O)c5c4[C@@]2(CCN3CC2CC2)[C@H]1O5 [naltrexone hydrochloride]	inactive: 0
CN[C@@H]1[C@@H](O)[C@@H](O[C@@H]2[C@@H](O)[C@H](O[C@H]3O[C@H](CN)CC[C@H]3N)[C@@H](N)C[C@H]2N)OC[C@]1(C)O.CN[C@@H]1[C@@H](O)[C@@H](O[C@@H]2[C@@H](O)[C@H](O[C@H]3O[C@H]([C@@H](C)N)CC[C@H]3N)[C@@H](N)C[C@H]2N)OC[C@]1(C)O.CN[C@@H]1[C@@H](O)[C@@H](O[C@@H]2[C@@H](O)[C@H](O[C@H]3O[C@H]([C@@H](C)NC)CC[C@H]3N)[C@@H](N)C[C@H]2N)OC[C@]1(C)O [gentamicin sulfate]	inactive: 0
CC(NC(C)(C)C)C(=O)c1cccc(Cl)c1 (stereo unspecified) [Bupropion hydrochloride]	inactive: 0
CC(=O)[C@H]1CC[C@H]2[C@@H]3CC[C@H]4C[C@H](O)CC[C@]4(C)[C@H]3CC[C@]12C [allopregnanolone]	inactive: 0
CCOC(=O)CC(SP(=S)(OC)OC)C(=O)OCC (stereo unspecified) [malathion]	inactive: 0
CC(N)Cc1ccc(O)cc1 (stereo unspecified) [hydroxyamphetamine hydrobromide]	inactive: 0
O=c1c2ccccc2[se]n1-c1ccccc1 [ebselen]	inactive: 0
N=C(NCCC[C@H](N)C(=O)O)N[N+](=O)[O-] [NG-Nitro-L-arginine]	inactive: 0
C[C@]12CC[C@H]3[C@@H](CCC4=CC(=O)CC[C@@]43C)[C@@H]1CC[C@@H]2O [testosterone]	inactive: 0
COc1cc2c3cc1Oc1c(OC)c(OC)cc4c1[C@@H](Cc1cccc(c1)Oc1ccc(c(O)c1)C[C@@H]3N(C)CC2)N(C)CC4 [berbamine hydrochloride]	inactive: 0
O=c1ccc2cc(O[C@@H]3O[C@H](CO)[C@@H](O)[C@H](O)[C@H]3O)c(O)cc2o1 [aesculin]	inactive: 0
COP(=O)(NC(C)=O)SC (stereo unspecified) [acephate]	inactive: 0

Structure (SMILES)	phenotypic hit
COc1c2c(cc3c1OCO3)CCN(C)C2 [hydrocotarnine hydrobromide]	inactive: 0
C[C@]12CCC(=O)C[C@@H]1CC[C@@H]1[C@@H]2CC[C@]2(C)C(=O)CC[C@@H]12 [5alpha-androstan-3,17-dione]	inactive: 0
C[C@]12CC[C@H](O)C[C@H]1CC[C@@H]1[C@@H]2CC[C@]2(C)[C@@H](C3=CC(=O)OC3)[C@@H](O)C[C@]12O [gitoxigenin]	inactive: 0
CNC(=O)CSP(=S)(OC)OC [dimethoate]	inactive: 0
CCNc1nc(Cl)nc(NC(C)C)n1 [atrazine]	inactive: 0
C=CCc1ccc2c(c1)OCO2 [safrole]	inactive: 0
CCCC(C)C1(CC)C(=O)NC(=O)NC1=O (stereo unspecified) [pentobarbital]	inactive: 0
Cc1ccc2cc3c(ccc4ccccc43)c3c2c1CC3 [3-methylcholanthrene]	inactive: 0
C[C@@H]1C(=O)O[C@H]2[C@H]1CC[C@@]1(C)C=CC(=O)[C@@]3(C)O[C@@]213 [epoxy (4,5alpha)-4,5-dihydrosantonin]	inactive: 0
C=CCN1CC[C@]23c4c5ccc(O)c4O[C@H]2C(=O)CC[C@@]3(O)[C@H]1C5 [naloxone hydrochloride]	inactive: 0
C[C@]12CCC(=O)C=C1C=C[C@@H]1[C@@H]2CC[C@@]2(C)[C@H]1CC[C@@]2(O)CCC(=O)O [canrenoic acid, potassium salt]	inactive: 0
CCOP(=S)(OCC)SCn1c(=O)oc2cc(Cl)ccc21 [phosalone]	inactive: 0
O=C(O)COc1ccc(Cl)cc1Cl [2,4-dichlorophenoxyacetic acid]	inactive: 0
CCNc1nc(Cl)nc(NCC)n1 [simazine]	inactive: 0
CO[C@H]1[C@H](O)[C@H](O[C@H]2CC[C@@]3(C=O)[C@H](CC[C@@H]4[C@@H]3CC[C@]3(C)[C@@H](C5=CC(=O)OC5)CC[C@]43O)C2)O[C@@H](C)[C@@H]1O [peruvoside]	inactive: 0
CC[C@@H](C(=O)[C@@H](C)[C@@H](O)[C@H](C)[C@@H]1O[C@@H]([C@@H](CC)C(=O)O)CC[C@@H]1C)[C@H]1O[C@]2(C=C[C@@H](O)[C@]3(CC[C@@](C)([C@H]4CC[C@](O)(CC)[C@H](C)O4)O3)O2)[C@H](C)C[C@@H]1C [salinomycin, sodium]	active: 1
CC(=O)O[C@@H]1[C@H]2CC[C@H]3[C@@](C)(O)[C@@H]4C[C@H](O)C(C)(C)[C@@]4(O)[C@H](O)C[C@@]13C[C@@]2(C)O [grayanotoxin i]	inactive: 0
CO[C@H]1C[C@H](O[C@H]2CC[C@@]3(C)[C@H](CC[C@@H]4[C@@H]3CC[C@]3(C)[C@@H](C5=CC(=O)OC5)[C@@H](OC(C)=O)C[C@]43O)C2)O[C@@H](C)[C@@H]1O [oleandrin]	inactive: 0
C=C1C([C@]2(C)C(CC(=O)OC)[C@@](C)(COC(C)=O)OC(=O)C[C@@H]2OC(C)=O)[C@@H](OC=O)[C@H](OC(=O)C(OC(C)=O)C(C)CC)[C@@]2(C)[C@H](c3ccoc3)CC(=O)C12O (stereo partly specified) [prieuranin acetate]	inactive: 0
COP(=O)(OC)OC=C(Cl)Cl [dichlorvos]	inactive: 0
C[C@H]1CC[C@]2(NC1)O[C@H]1C[C@H]3[C@@H]4CC[C@H]5C[C@@H](O)CC[C@]5(C)[C@H]4CC[C@]3(C)[C@H]1[C@@H]2C [tomatidine hydrochloride]	inactive: 0
S=C=NCc1ccccc1 [benzyl isothiocyanate]	inactive: 0
